No constants are given. Whether binding was seen depends on the method and setting. In cells and extracts the contact can be indirect. Some entries that bind do so weakly or less than the wild type. Sequences can lack the tags named with a protein.
What was measured:
Test in all cases: co-IP; V5H6-tagged FRQ (wild type or mutant) pulled down with V5 agarose from Neurospora lysate (cultures in the light, 25 °C); 50 mM Hepes pH 7.4, 137 mM NaCl, 10% glycerol, 0.4% NP-40; 4 °C, 2 h; Western blot with FRQ, FRH, WC-1 and WC-2 antibodies
[1] = biological target: T1, FRQ D664A, D667A, V5H6-tagged (Neurospora crassa) (UniProt P19970)
T1 sequence: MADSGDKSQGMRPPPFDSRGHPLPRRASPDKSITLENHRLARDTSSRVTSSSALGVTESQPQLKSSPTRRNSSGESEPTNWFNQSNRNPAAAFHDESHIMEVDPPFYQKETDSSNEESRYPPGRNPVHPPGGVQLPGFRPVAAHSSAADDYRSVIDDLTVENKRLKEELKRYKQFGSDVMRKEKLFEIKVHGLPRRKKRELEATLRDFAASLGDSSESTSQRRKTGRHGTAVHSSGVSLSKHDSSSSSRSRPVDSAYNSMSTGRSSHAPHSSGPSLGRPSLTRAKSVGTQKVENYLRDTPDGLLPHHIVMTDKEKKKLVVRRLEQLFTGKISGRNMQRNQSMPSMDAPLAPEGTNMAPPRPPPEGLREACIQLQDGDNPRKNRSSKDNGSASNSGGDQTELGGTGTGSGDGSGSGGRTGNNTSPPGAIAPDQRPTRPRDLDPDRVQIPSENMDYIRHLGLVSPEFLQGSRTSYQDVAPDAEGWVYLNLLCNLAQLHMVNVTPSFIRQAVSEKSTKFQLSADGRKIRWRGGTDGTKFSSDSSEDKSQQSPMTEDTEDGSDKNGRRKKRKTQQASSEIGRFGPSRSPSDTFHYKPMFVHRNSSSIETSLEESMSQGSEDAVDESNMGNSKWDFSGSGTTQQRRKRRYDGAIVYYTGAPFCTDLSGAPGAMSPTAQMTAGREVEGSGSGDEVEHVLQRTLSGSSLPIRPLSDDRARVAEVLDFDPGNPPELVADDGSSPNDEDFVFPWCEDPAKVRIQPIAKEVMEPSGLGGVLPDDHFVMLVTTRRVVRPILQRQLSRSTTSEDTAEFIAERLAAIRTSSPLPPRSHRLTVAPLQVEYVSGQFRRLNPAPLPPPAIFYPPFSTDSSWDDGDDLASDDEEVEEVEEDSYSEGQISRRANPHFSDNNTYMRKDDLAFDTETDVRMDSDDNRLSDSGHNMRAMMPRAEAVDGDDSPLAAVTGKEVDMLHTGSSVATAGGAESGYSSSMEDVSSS

Protein sequences, listed by entry. Tags and fused reporters are not part of them.
UniProt Q01371: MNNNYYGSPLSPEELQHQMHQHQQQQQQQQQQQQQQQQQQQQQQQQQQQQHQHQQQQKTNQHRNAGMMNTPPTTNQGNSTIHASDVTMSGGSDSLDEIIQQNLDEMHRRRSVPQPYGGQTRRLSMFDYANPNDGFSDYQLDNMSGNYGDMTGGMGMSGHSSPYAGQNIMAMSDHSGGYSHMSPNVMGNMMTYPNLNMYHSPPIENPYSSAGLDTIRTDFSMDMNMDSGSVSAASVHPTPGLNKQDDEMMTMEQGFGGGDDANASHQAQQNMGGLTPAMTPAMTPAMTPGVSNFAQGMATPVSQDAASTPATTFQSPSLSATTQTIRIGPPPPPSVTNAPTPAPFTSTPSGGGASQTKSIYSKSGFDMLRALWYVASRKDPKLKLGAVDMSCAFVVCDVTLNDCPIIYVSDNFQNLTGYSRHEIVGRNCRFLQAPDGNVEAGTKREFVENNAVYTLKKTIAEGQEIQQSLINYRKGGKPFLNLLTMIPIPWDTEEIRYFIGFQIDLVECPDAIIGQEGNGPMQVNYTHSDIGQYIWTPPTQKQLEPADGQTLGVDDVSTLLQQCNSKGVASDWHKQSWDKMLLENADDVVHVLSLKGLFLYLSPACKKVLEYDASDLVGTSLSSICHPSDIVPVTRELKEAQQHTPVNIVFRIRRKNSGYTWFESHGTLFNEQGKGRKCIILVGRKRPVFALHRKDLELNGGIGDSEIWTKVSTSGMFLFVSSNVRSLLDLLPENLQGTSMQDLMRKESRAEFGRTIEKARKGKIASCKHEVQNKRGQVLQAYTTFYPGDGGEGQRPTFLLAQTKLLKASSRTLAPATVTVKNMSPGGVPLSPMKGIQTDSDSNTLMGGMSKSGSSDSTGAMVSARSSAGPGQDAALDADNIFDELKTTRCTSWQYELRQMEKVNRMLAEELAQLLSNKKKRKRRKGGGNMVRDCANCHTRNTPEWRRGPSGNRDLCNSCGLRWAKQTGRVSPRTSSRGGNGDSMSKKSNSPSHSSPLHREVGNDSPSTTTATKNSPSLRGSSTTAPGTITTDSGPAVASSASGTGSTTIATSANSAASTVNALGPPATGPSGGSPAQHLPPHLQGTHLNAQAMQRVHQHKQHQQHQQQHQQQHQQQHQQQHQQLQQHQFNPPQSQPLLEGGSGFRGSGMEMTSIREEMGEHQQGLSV

[2] = biological target: T2, FRQ Δ874–884, V5H6-tagged (Neurospora crassa) (UniProt P19970)
T2 sequence: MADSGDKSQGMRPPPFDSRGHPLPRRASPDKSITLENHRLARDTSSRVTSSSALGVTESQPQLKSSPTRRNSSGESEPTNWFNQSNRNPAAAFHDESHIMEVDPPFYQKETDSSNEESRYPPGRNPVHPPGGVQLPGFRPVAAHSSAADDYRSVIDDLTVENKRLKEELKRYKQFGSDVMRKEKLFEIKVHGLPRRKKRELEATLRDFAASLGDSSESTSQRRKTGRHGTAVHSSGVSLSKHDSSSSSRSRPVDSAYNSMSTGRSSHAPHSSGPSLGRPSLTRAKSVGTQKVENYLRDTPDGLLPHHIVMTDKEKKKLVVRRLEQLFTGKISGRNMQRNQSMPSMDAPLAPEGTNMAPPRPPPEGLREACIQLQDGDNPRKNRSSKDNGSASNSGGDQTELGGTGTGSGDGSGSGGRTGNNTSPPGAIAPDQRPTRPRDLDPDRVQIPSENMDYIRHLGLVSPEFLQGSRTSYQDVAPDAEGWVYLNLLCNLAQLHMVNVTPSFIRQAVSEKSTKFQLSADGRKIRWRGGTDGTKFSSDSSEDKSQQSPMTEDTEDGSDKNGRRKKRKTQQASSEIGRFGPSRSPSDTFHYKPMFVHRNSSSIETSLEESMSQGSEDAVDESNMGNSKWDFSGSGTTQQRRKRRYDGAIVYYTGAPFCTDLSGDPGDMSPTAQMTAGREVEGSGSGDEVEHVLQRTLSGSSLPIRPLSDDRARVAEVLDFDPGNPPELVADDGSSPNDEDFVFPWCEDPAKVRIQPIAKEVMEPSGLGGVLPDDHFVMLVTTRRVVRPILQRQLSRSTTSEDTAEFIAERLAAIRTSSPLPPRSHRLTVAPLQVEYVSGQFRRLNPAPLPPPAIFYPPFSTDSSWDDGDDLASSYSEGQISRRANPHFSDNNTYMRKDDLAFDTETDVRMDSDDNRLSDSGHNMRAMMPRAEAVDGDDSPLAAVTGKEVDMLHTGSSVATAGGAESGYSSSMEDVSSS

[3] = biological target: T3, FRQ 559–989, V5H6-tagged (Neurospora crassa) (UniProt P19970)
T3 sequence: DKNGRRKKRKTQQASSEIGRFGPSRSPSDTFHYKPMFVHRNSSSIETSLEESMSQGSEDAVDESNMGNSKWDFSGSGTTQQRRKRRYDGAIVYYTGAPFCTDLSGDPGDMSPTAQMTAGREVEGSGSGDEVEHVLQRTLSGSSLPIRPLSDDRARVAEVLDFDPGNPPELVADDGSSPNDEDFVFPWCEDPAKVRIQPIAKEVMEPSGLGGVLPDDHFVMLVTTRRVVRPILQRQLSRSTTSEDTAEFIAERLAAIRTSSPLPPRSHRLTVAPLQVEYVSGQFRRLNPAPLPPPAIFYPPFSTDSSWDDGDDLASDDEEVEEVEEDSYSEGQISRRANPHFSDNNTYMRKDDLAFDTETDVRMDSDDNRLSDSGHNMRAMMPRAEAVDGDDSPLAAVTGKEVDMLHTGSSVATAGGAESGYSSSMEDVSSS

binding [1]: binds weakly
binding [2]: binds
binding [3]: no binding
Substance: White Collar-1 (WC-1) (from UniProt Q01371 1-1167)

From PMC10320511
